From the supplement of paper PMC3334620
Over roughly 33,000 sequences, “E-score (-0.5 to 0.5)” has its median near -0.01; the highest 2% begin near 0.26. Some of the results follow.

target: Ste12 (UniProt P13574); test: PBM E-score (8-mer binding enrichment) (E-score (-0.5 to 0.5)); higher = stronger / more preferred TF binding; most listed sequences are background and not binding sites; details: protein concentration: 200 nM; construct: GST-DNA-binding domain
Procedure: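 Universal 'all 10-mer' protein binding microarrays (Agilent AMADID 015681) probed with GST-tagged S. cerevisiae TFs (full-length or DBD) made by in vitro transcription/translation (PURExpress), about 100-200 nM. Bound TF was detected with fluorescent anti-GST. Each ungapped 8-mer (which stands for itself and its reverse complement) is scored by the PBM enrichment score (E-score), a modified Wilcoxon-Mann-Whitney statistic from -0.5 to +0.5, computed with the Universal PBM Analysis Suite. Scale: above 0.35 generally sequence-specific binding.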

| Sequence | PBM E-score |
| --- | --- |
| AAACAGGC | -0.0502 |
| GGAGAGAA | -0.0614 |
| AAGAACAA | 0.23 |
| ACTGTCAT | 0.0059 |
| AGATTTAC | 0.114 |
| GAACCTGC | -0.118 |
| AAGCCGTC | -0.00203 |
| ATGACTCA | -0.0126 |
| CTTCGAAA | 0.132 |
| AAGTGAGG | -0.111 |
| GTTCAAAC | 0.221 |
| ATGAAGAG | 0.112 |
| AACAGTCA | -0.0148 |
| ACAGTCAT | -0.144 |
| ACCGCTCC | -0.0899 |
| CGGTAACC | -0.0501 |
| AGTGGCAC | -0.256 |
| CCCTACCG | -0.148 |
| CATACTGC | 0.0378 |
| CAGGCGGG | 0.0689 |
| TGGTAGAA | 0.0106 |
| TAAAAGAA | 0.0708 |
| ATCTACGC | 0.226 |
| CAAGAATA | 0.149 |
| CACAGCGG | -0.0416 |

| Sequence | PBM E-score |
| --- | --- |
| AATAGGGA | 0.0663 |
| GAACAATA | 0.226 |
| GCTGGCAA | 0.146 |
| ATTAGTGC | 0.0153 |
| TCAGGCGA | 0.0318 |
| CAGCACAG | -0.103 |
| AGATCCGC | -0.11 |
| ATGCCAAC | -0.0266 |
| CAACGATA | 0.0594 |
| AAATCTAG | -0.0397 |
| GCGACTGA | -0.0821 |
| GTGTTAGA | 0.0425 |
| AGGAGTCG | -0.213 |
| CTGGGCCA | -0.251 |
| ATTATAAC | 0.172 |
| ACTTGTTA | 0.16 |
| ACCCGCAA | -0.203 |
| CGAACCTA | -0.0226 |
| CCTGGATC | -0.309 |
| ATCTTCTC | 0.011 |
| CTGCGCAG | -0.147 |
| CTCACGCA | 0.125 |
| CCATGCCC | -0.0778 |
| CGTACAAA | -0.00753 |
| AGACTAAA | 0.145 |

| Sequence | PBM E-score |
| --- | --- |
| CACGCCAG | -0.163 |
| ATCCGAGC | -0.0632 |
| CCACGAAG | -0.0792 |
| CTTTACCA | 0.0355 |
| CCGTGCCG | -0.216 |
| GTGAGATA | -0.0196 |
| CCTGCCCG | -0.0386 |
| AGAATGTG | -0.0534 |
| CCGAGAGG | -0.101 |
| GTTCGGGA | 0.0637 |
| CAGCCTCG | 0.185 |
| GAGCAAGA | -0.0519 |
| GGTGTTTA | 0.182 |
| CCGTCGCG | -0.144 |
| AAATTTGT | 0.188 |
| AGGAAGAT | 0.0601 |
| GAGAAGAC | -0.146 |
| ATTCCGTG | 0.0217 |
| ACTATCTA | -0.0876 |
| CAGAAGAG | 0.00034 |
| GGGATATA | 0.0231 |
| AGCCGGGC | -0.256 |
| GAACAGAC | 0.0181 |
| GTTGGGAA | -0.0234 |
| ACATTCGA | 0.119 |

| Sequence | PBM E-score |
| --- | --- |
| ATAATAAT | 0.126 |
| AGCAGGAT | 0.0876 |
| ACCCCCGC | -0.161 |
| CGCTCAAC | -0.108 |
| AAGTATCT | -0.0241 |
| GCGCAGAA | 0.0586 |
| GATGCTTA | -0.0965 |
| AGTCAACC | 0.0595 |
| GGCTGCAC | -0.238 |
| GGCATTAA | 0.0709 |
| AAACCTTG | 0.0436 |
| TCCATCAA | 0.122 |
| GGAGGTGA | 0.101 |
| CGTAGGAG | -0.211 |
| ACTGGTCC | -0.0777 |
| CACGTCAG | -0.0714 |
| ATAACTAA | 0.0714 |
| ATGTTTAC | 0.234 |
| GGTATAGA | 0.00136 |
| AAAGTATT | 0.136 |
| CGGTGTAA | 0.0759 |
| CACGCGCC | 0.0271 |
| GTGGGTAA | -0.118 |
| ACTGAAGT | -0.12 |
| GACAGGCA | 0.00399 |

| Sequence | PBM E-score |
| --- | --- |
| ATTCGATC | 0.0704 |
| AGCCCCGA | -0.0229 |
| ATCATAAG | 0.0492 |
| TAGGCCAA | -0.176 |
| GAGCAGGC | -0.208 |
| TACGCTGA | -0.101 |
| GAGTCCCC | -0.265 |
| ATCCAATC | 0.0994 |
| ACTTAGAA | 0.0438 |
| AGCACGGC | -0.0299 |
| ACAGGAGT | -0.107 |
| CAGCCTGA | 0.0275 |
| CCCATAAA | -0.0663 |
| ACTTTTAC | 0.263 |
| ATGCAAAC | 0.149 |
| ATTGACGA | 0.0585 |
| GTCAGAGA | -0.188 |
| TTATGGAA | 0.226 |
| ACATGCAT | 0.0142 |
| CCCACCGG | -0.155 |
| GTGGATGA | -0.0758 |
| GTGGGCTA | -0.163 |
| AGAAGTCG | -0.0549 |
| CATGTCTA | -0.0677 |
| ATCCGGAG | 0.132 |

| Sequence | PBM E-score |
| --- | --- |
| CGCCTGTA | -0.144 |
| AATAAATG | 0.216 |
| AAACAATG | 0.147 |
| CGGCGAAA | 0.137 |
| AATCTTAA | 0.0814 |
| CGGGCTGA | -0.0192 |
| AGACTTAA | -0.0839 |
| AATGGTGA | 0.0094 |
| GCCATAGA | -0.0934 |
| AGAAATAA | 0.207 |
| TCGGCCGA | 0.0948 |
| TAGCTACA | -0.118 |
| TAGCGAAA | 0.118 |
| ACAGCTGT | -0.177 |
| ATCAAAGC | 0.0652 |
| ATGTGATG | -0.0518 |
| CGCGGCGC | 0.125 |
| ACATAGAT | -0.0265 |
| CAAGAGAC | -0.112 |
| ATCGCTGA | 0.0794 |
| CCCCACAC | 0.0325 |
| CCCCTTTC | -0.00455 |
| TCACCGGA | -0.0172 |
| GGAGAAAC | 0.137 |
| ACCCATAC | 0.105 |

| Sequence | PBM E-score |
| --- | --- |
| ACTGCCCT | -0.0493 |
| AAAAAGGC | 0.107 |
| AAAGTGCA | 0.00735 |
| CTACCTCC | -0.09 |
| AAGGAGGG | 0.0772 |
| CAAACGGA | 0.0164 |
| ACACTGCG | -0.00409 |
| GAGACGCC | 0.111 |
| GTAACTCA | -0.00566 |
| AGACACGC | -0.163 |
| AATGGTAT | 0.0905 |
| AACTGAGT | -0.0272 |
| CCTCCTCA | -0.0921 |
| TCCAGACA | -0.06 |
| GACTTGTA | -0.0715 |
| AGCCCAGG | -0.201 |
| GCAATCCA | -0.0316 |
| GAAACTCA | 0.219 |
| AAGAGCGA | 0.067 |
| GTCATGAC | -0.136 |
| ACCAAATG | 0.0275 |
| ACCCTAGT | -0.0979 |
